Source: article PMC4336329 (PLoS ONE, 2015)
In all, about 310,000 compounds went through this assay and about 14,000 (4.5%) showed an effect of 50% or more. The effect is printed as a negative number. Some of the results follow.

biological target: human ether-à-go-go-related gene (hERG) potassium channel (human, UniProt Q12809); assay: primary screen, population patch clamp on CHO cells stably expressing hERG
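Note: peak tail current of the secondary pulse compared with the same well before compound.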

Sequence of human ether-à-go-go-related gene (hERG) potassium channel (Q12809 whole entry, looked up): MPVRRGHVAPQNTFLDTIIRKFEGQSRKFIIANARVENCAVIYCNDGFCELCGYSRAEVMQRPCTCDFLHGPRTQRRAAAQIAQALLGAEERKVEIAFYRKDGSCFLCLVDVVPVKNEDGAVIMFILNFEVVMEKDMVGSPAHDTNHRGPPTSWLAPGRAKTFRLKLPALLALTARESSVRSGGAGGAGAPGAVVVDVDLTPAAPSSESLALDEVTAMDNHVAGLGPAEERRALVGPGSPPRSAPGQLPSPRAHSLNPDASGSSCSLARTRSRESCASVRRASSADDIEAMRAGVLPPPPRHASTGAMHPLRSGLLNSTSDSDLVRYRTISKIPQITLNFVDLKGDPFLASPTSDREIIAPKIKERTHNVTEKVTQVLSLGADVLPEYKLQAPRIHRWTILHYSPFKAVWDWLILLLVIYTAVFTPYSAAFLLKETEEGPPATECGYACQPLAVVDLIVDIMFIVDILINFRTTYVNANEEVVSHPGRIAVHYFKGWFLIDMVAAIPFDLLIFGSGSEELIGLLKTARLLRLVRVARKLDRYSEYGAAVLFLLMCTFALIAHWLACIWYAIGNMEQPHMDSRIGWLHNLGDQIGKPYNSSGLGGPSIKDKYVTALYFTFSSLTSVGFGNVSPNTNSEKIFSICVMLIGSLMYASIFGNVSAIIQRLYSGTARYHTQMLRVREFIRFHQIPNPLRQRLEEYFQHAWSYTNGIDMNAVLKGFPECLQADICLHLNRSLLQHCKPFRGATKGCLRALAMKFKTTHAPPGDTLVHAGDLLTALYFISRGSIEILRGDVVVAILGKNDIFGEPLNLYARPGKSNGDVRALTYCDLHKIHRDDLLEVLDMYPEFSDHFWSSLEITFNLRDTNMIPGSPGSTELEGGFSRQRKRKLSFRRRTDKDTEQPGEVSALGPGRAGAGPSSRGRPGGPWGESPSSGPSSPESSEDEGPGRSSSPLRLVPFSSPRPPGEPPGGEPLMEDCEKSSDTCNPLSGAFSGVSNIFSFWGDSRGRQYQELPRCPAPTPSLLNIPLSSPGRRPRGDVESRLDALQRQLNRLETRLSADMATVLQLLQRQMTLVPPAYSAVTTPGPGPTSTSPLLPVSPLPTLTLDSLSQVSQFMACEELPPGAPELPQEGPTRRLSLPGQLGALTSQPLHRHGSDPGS

SMILES | hERG current change (%, negative = inhibition) at 10uM
Cc1noc(C)c1C(=O)N(C)CC(=O)Nc1ccc(F)c(F)c1F | -4.15%
NS(=O)(=O)c1cccc(NC(=O)COC(=O)/C=C/c2ccco2)c1 | -0.65%
CCCS(=O)(=O)N1CCCC(C(=O)NCC2CCCO2)C1 (stereo not shown) | 11.1%
CCOc1ccccc1N1CCN(C(=O)NCc2ccc(F)cc2)CC1 | -9.29%
COC(=O)CCC(=O)OC1(C)C(=O)C2=CN(C3CCCC3)C(c3ccc(OC)cc3)=CC2=C(Br)C1=O (stereo not shown) | -52.6%
CC(Sc1ccccc1)C(=O)NN=C1CCN(C)CC1 (stereo not shown) | 20.7%
Cc1ccc(C(=O)COC(=O)CNC(=O)c2ccco2)cc1 | 1.12%
O=C(N=Nc1c(O)n(Cc2ccccc2)c2ccccc12)c1ccncc1 | -31.5%
O=C(c1ccc(S(=O)(=O)N2CCCC2)cc1)N1CCCCC1 | -9.7%
Cc1c(C(=O)Nc2ccc(-c3nnc4n3CCCCC4)cc2)oc2c1ccc1ccccc12 | -13.8%
C=CCn1c([O-])c(C(C)=O)c(=O)[nH]c1=O.C[NH+](C)C | 6.41%
CSCc1cc(N(C)C)nc(SCc2ccc(Cl)cc2Cl)n1 | 12.9%
N=c1oc2cc(O)ccc2cc1C(=O)Nc1nc2ccccc2s1 | 11.4%
CN1CC(=O)Nc2ccc(Br)cc2C1=O | 19.9%
CCOC(=O)C(C)Sc1nnc(-c2c[nH]c3ccccc23)n1C (stereo not shown) | 6.23%
CC(=O)Nc1ccc(S(=O)(=O)N(C)CC(=O)OCC(=O)c2cc(C)n(-c3ccc4c(c3)OCO4)c2C)cc1 | 11.8%
NC(=O)C1CCN(C(=S)c2ccc(-c3ccc(Br)cc3)o2)CC1 | 23.3%
COc1ccc(OCCC(=O)Nc2ccccc2)cc1 | -6.83%
N#Cc1cc2c(nc1SCC(=O)Nc1sc3c(c1C#N)CCC3)CCCC2 | 4.92%
CC1CN(c2snnc2C=C2C(=O)OC(C)(C)OC2=O)CC(C)O1 (stereo not shown) | 33.8%
Cc1cccc(NC(=O)Cn2c(=O)oc3ccccc32)n1 | 9.29%
COc1ccc(Cc2nnc(SCC(=O)NCC3CCCO3)o2)cc1 (stereo not shown) | 25.9%
COc1c(Cl)cc(Cl)cc1CNCCNCC(C)O.Cl (stereo not shown) | -6.46%
CCOC(=O)c1cccc(NC(=S)NCc2ccc(C)cc2)c1 | 0.823%
COc1cc2c(c(OC)c1OC)-c1c(cc3c(c1O)OCO3)C[C@@H](C)[C@@H](C)C2 | 0.26%
